# Test results reported in the supplement of paper PMC8728848.
# This is one part of the list.
# B1: Sialidase (Vibrio cholerae), P37060 (protein)
# chain: GAMALFDYNATGDTEFDSPAKQGWMQDNTNNGSGVLTNADGMPAWLVQGIGGRAQWTYSLSTNQHAQASSFGWRMTTEMKVLSGGMITNYYANGTQRVLPIISLDSSGNLVVEFEGQTGRTVLATGTAATEYHKFELVFLPGSNPSASFYFDGKLIRDNIQPTASKQNMIVWGNGSSNTDGVAAYRDIKFEIQGDALNGSMALFDYNATGDTEFDSPAKQGWMQDNTNNGSGVLTNADGMPAWLVQGIGGRAQWTYSLSTNQHAQASSFGWRMTTEMKVLSGGMITNYYANGTQRVLPIISLDSSGNLVVEFEGQTGRTVLATGTAATEYHKFELVFLPGSNPSASFYFDGKLIRDNIQPTASKQNMIVWGNGSSNTDGVAAYRDIKFEIQGDLQALGMALFDYNATGDTEFDSPAKQGWMQDNTNNGSGVLTNADGMPAWLVQGIGGRAQWTYSLSTNQHAQASSFGWRMTTEMKVLSGGMITNYYANGTQRVLPIISLDSSGNLVVEFEGQTGRTVLATGTAATEYHKFELVFLPGSNPSASFYFDGKLIRDNIQPTASKQNMIVWGNGSSNTDGVAAYRDIKFEIQGD
# What was measured:
# Assay in all cases: glycan array binding signal (z-score within array); higher = stronger binding
# Conditions in all cases: glycan notation: IUPAC condensed, linker removed
# [1] = biological target: Neu5Ac(a2-3)Gal(b1-4)[Fuc(a1-3)]GlcNAc
# How it was run: (§1)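 The binding signal is a Z-score computed within each array. Data were drawn from 3228 arrays in the Consortium for Functional Glycomics database, restricted to those with a known protein sequence. Scores were averaged over arrays of the same protein sequence at different concentrations or buffers, and over linkers, and negative values can be taken as non-binding.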
# [2] = biological target: Neu5Ac(a2-3)Gal(b1-4)[Fuc(a1-3)]GlcNAc(b1-3)Gal
# How it was run: as §1
# [3] = biological target: Neu5Ac(a2-3)Gal(b1-4)[Fuc(a1-3)]GlcNAc(b1-3)Gal(b1-4)GlcNAc
# How it was run: as §1
# [4] = biological target: Neu5Ac(a2-3)Gal(b1-4)[Fuc(a1-3)]GlcNAc(b1-3)Gal(b1-4)[Fuc(a1-3)]GlcNAc(b1-3)Gal(b1-4)[Fuc(a1-3)]GlcNAc
# How it was run: as §1
# [5] = biological target: Neu5Ac(a2-3)Gal(b1-4)[Fuc(a1-3)]GlcNAc(b1-6)[Gal(b1-3)]GalNAc
# How it was run: as §1
# [6] = biological target: Neu5Ac(a2-3)Gal(b1-4)[Fuc(a1-3)]GlcNAc(b1-6)[Neu5Ac(a2-3)Gal(b1-3)]GalNAc
# How it was run: as §1
# [7] = biological target: Neu5Ac(a2-3)Gal(b1-4)[Fuc(a1-3)]GlcNAc6S
# How it was run: as §1
# [8] = biological target: Neu5Ac(a2-3)Gal6S(b1-4)GlcNAc
# How it was run: as §1
# [9] = biological target: Neu5Ac(a2-3)Gal6S(b1-4)[Fuc(a1-3)]GlcNAc
# How it was run: as §1
# Neu5Ac(a2-3)GalNAc = biological target: Neu5Ac(a2-3)GalNAc
# How it was run: as §1
# [10] = biological target: Neu5Ac(a2-3)GalNAc(b1-4)GlcNAc
# How it was run: as §1
# [11] = biological target: Neu5Ac(a2-3)[GalNAc(b1-4)]Gal(b1-4)Glc
# How it was run: as §1
# [12] = biological target: Neu5Ac(a2-3)[GalNAc(b1-4)]Gal(b1-4)GlcNAc
# How it was run: as §1
# [13] = biological target: Neu5Ac(a2-3)[Neu5Ac(a2-6)]GalNAc
# How it was run: as §1
# Neu5Ac(a2-6)Gal = biological target: Neu5Ac(a2-6)Gal
# How it was run: as §1
# Neu5Ac(a2-6)Gal(b1-4)Glc = biological target: Neu5Ac(a2-6)Gal(b1-4)Glc
# How it was run: as §1
# [14] = biological target: Neu5Ac(a2-6)Gal(b1-4)GlcNAc
# How it was run: as §1
# [15] = biological target: Neu5Ac(a2-6)Gal(b1-4)GlcNAc(b1-2)Man(a1-3)Man(b1-4)GlcNAc(b1-4)GlcNAc
# How it was run: as §1
# [16] = biological target: Neu5Ac(a2-6)Gal(b1-4)GlcNAc(b1-2)Man(a1-3)[Gal(b1-4)GlcNAc(b1-2)Man(a1-6)]Man(b1-4)GlcNAc(b1-4)GlcNAc
# How it was run: as §1
# [17] = biological target: Neu5Ac(a2-6)Gal(b1-4)GlcNAc(b1-2)Man(a1-3)[GlcNAc(b1-2)Man(a1-6)]Man(b1-4)GlcNAc(b1-4)GlcNAc
# How it was run: as §1
# [18] = biological target: Neu5Ac(a2-6)Gal(b1-4)GlcNAc(b1-2)Man(a1-3)[GlcNAc(b1-2)Man(b1-4)GlcNAc(b1-2)Man(a1-6)]Man(b1-4)GlcNAc(b1-4)GlcNAc
# How it was run: as §1
# [19] = biological target: Neu5Ac(a2-6)Gal(b1-4)GlcNAc(b1-2)Man(a1-3)[Man(a1-6)]Man(b1-4)GlcNAc(b1-4)GlcNAc
# How it was run: as §1
# [20] = biological target: Neu5Ac(a2-6)Gal(b1-4)GlcNAc(b1-2)Man(a1-3)[Neu5Ac(a2-6)Gal(b1-4)GlcNAc(b1-2)Man(a1-6)]Man(b1-4)GlcNAc(b1-4)GlcNAc
# How it was run: as §1
# [21] = biological target: Neu5Ac(a2-6)Gal(b1-4)GlcNAc(b1-2)Man(a1-6)Man(b1-4)GlcNAc(b1-4)GlcNAc
# How it was run: as §1
# [22] = biological target: Neu5Ac(a2-6)Gal(b1-4)GlcNAc(b1-2)Man(a1-6)[Gal(b1-4)GlcNAc(b1-2)Man(a1-3)]Man(b1-4)GlcNAc(b1-4)GlcNAc
# How it was run: as §1
# [23] = biological target: Neu5Ac(a2-6)Gal(b1-4)GlcNAc(b1-2)Man(a1-6)[GlcNAc(b1-2)Man(a1-3)]Man(b1-4)GlcNAc(b1-4)GlcNAc
# How it was run: as §1
# [24] = biological target: Neu5Ac(a2-6)Gal(b1-4)GlcNAc(b1-2)Man(a1-6)[Man(a1-3)]Man(b1-4)GlcNAc(b1-4)GlcNAc
# How it was run: as §1
# [25] = biological target: Neu5Ac(a2-6)Gal(b1-4)GlcNAc(b1-3)Gal(b1-3)GlcNAc
# How it was run: as §1
# [26] = biological target: Neu5Ac(a2-6)Gal(b1-4)GlcNAc(b1-3)Gal(b1-4)GlcNAc
# How it was run: as §1
# [27] = biological target: Neu5Ac(a2-6)Gal(b1-4)GlcNAc(b1-3)Gal(b1-4)GlcNAc(b1-3)Gal(b1-4)GlcNAc
# How it was run: as §1
# [28] = biological target: Neu5Ac(a2-6)Gal(b1-4)GlcNAc(b1-3)Gal(b1-4)[Fuc(a1-3)]GlcNAc(b1-3)Gal(b1-4)[Fuc(a1-3)]GlcNAc
# How it was run: as §1
# [29] = biological target: Neu5Ac(a2-6)Gal(b1-4)GlcNAc(b1-3)GalNAc
# How it was run: as §1
# [30] = biological target: Neu5Ac(a2-6)Gal(b1-4)GlcNAc6S
# How it was run: as §1
# Neu5Ac(a2-6)GalNAc = biological target: Neu5Ac(a2-6)GalNAc
# How it was run: as §1
# [31] = biological target: Neu5Ac(a2-6)GalNAc(b1-4)GlcNAc
# How it was run: as §1
# [32] = biological target: Neu5Ac(a2-6)GlcNAc(b1-4)GlcNAc
# How it was run: as §1
# [33] = biological target: Neu5Ac(a2-6)GlcNAc(b1-4)GlcNAc(b1-4)GlcNAc
# How it was run: as §1
# Neu5Ac(a2-8)Neu5Ac = biological target: Neu5Ac(a2-8)Neu5Ac
# How it was run: as §1
# [34] = biological target: Neu5Ac(a2-8)Neu5Ac(a2-3)Gal(b1-4)Glc
# How it was run: as §1
# [35] = biological target: Neu5Ac(a2-8)Neu5Ac(a2-3)[GalNAc(b1-4)]Gal(b1-4)Glc
# How it was run: as §1
# [36] = biological target: Neu5Ac(a2-8)Neu5Ac(a2-8)Neu5Ac
# How it was run: as §1
# [37] = biological target: Neu5Ac(a2-8)Neu5Ac(a2-8)Neu5Ac(a2-3)Gal(b1-4)Glc
# How it was run: as §1
# [38] = biological target: Neu5Ac(a2-8)Neu5Ac(a2-8)Neu5Ac(a2-3)[GalNAc(b1-4)]Gal(b1-4)Glc
# How it was run: as §1
# [39] = biological target: Neu5Ac(a2-8)Neu5Ac(a2-8)Neu5Ac(a2-8)Neu5Ac(a2-3)[GalNAc(b1-4)]Gal(b1-4)Glc
# How it was run: as §1
# [40] = biological target: Neu5Ac(b2-6)Gal(b1-4)GlcNAc
# How it was run: as §1
# Neu5Ac(b2-6)GalNAc = biological target: Neu5Ac(b2-6)GalNAc
# How it was run: as §1
# [41] = biological target: Neu5Ac9Ac(a2-3)Gal(b1-3)GlcNAc
# How it was run: as §1
# [42] = biological target: Neu5Ac9Ac(a2-3)Gal(b1-4)GlcNAc
# How it was run: as §1
# [43] = biological target: Neu5Ac9Ac(a2-6)Gal(b1-4)GlcNAc
# How it was run: as §1
# [44] = biological target: Neu5Gc(a2-3)Gal(b1-3)GlcNAc
# How it was run: as §1
# [45] = biological target: Neu5Gc(a2-3)Gal(b1-3)[Fuc(a1-4)]GlcNAc
# How it was run: as §1
# Neu5Gc(a2-3)Gal(b1-4)Glc = biological target: Neu5Gc(a2-3)Gal(b1-4)Glc
# How it was run: as §1
# [46] = biological target: Neu5Gc(a2-3)Gal(b1-4)GlcNAc
# How it was run: as §1
# [47] = biological target: Neu5Gc(a2-3)Gal(b1-4)[Fuc(a1-3)]GlcNAc
# How it was run: as §1
# [48] = biological target: Neu5Gc(a2-6)Gal(b1-4)GlcNAc
# How it was run: as §1
# Neu5Gc(a2-6)GalNAc = biological target: Neu5Gc(a2-6)GalNAc
# How it was run: as §1
# [49] = biological target: Neu5Gc(b2-6)Gal(b1-4)GlcNAc
# How it was run: as §1
binder,measurement,setting,value
B1,glycan array binding signal (z-score),[1],1.13
same,glycan array binding signal (z-score),[2],-0.59
same,glycan array binding signal (z-score),[3],1.45
same,glycan array binding signal (z-score),[4],1.7
same,glycan array binding signal (z-score),[5],0.504
same,glycan array binding signal (z-score),[6],0.955
same,glycan array binding signal (z-score),[7],1.37
same,glycan array binding signal (z-score),[8],6.38
same,glycan array binding signal (z-score),[9],1.23
same,glycan array binding signal (z-score),Neu5Ac(a2-3)GalNAc,1.32
same,glycan array binding signal (z-score),[10],0.704
same,glycan array binding signal (z-score),[11],-0.052
same,glycan array binding signal (z-score),[12],-0.021
same,glycan array binding signal (z-score),[13],0.757
same,glycan array binding signal (z-score),Neu5Ac(a2-6)Gal,-0.247
same,glycan array binding signal (z-score),Neu5Ac(a2-6)Gal(b1-4)Glc,-0.275
same,glycan array binding signal (z-score),[14],-0.586
same,glycan array binding signal (z-score),[15],0.537
same,glycan array binding signal (z-score),[16],0.177
same,glycan array binding signal (z-score),[17],1.19
same,glycan array binding signal (z-score),[18],1.64
same,glycan array binding signal (z-score),[19],0.457
same,glycan array binding signal (z-score),[20],0.301
same,glycan array binding signal (z-score),[21],1.84
same,glycan array binding signal (z-score),[22],0.798
same,glycan array binding signal (z-score),[23],0.626
same,glycan array binding signal (z-score),[24],1.36
same,glycan array binding signal (z-score),[25],-0.237
same,glycan array binding signal (z-score),[26],-0.66
same,glycan array binding signal (z-score),[27],1.19
same,glycan array binding signal (z-score),[28],-0.466
same,glycan array binding signal (z-score),[29],-0.516
same,glycan array binding signal (z-score),[30],-0.611
same,glycan array binding signal (z-score),Neu5Ac(a2-6)GalNAc,0.651
same,glycan array binding signal (z-score),[31],0.49
same,glycan array binding signal (z-score),[32],-0.331
same,glycan array binding signal (z-score),[33],2.61
same,glycan array binding signal (z-score),Neu5Ac(a2-8)Neu5Ac,1.72
same,glycan array binding signal (z-score),[34],1.18
same,glycan array binding signal (z-score),[35],-0.257
same,glycan array binding signal (z-score),[36],0.113
same,glycan array binding signal (z-score),[37],-0.628
same,glycan array binding signal (z-score),[38],-0.647
same,glycan array binding signal (z-score),[39],1.23
same,glycan array binding signal (z-score),[40],-0.644
same,glycan array binding signal (z-score),Neu5Ac(b2-6)GalNAc,0.272
same,glycan array binding signal (z-score),[41],1.17
same,glycan array binding signal (z-score),[42],0.147
same,glycan array binding signal (z-score),[43],0.26
same,glycan array binding signal (z-score),[44],-0.668
same,glycan array binding signal (z-score),[45],-0.58
same,glycan array binding signal (z-score),Neu5Gc(a2-3)Gal(b1-4)Glc,0.129
same,glycan array binding signal (z-score),[46],-0.649
same,glycan array binding signal (z-score),[47],-0.397
same,glycan array binding signal (z-score),[48],-0.14
same,glycan array binding signal (z-score),Neu5Gc(a2-6)GalNAc,-0.564
same,glycan array binding signal (z-score),[49],-0.088
